# According to PubChem BioAssay AID504444 (National Center for Advancing Translational Sciences (NCATS), 2011):
# Screen size: about 360,000 compounds; about 7,500 (2.1%) were called active. Inconclusive results (about 20%) are left out. Calls follow the shape of the dose curve; as a rule, active = well fitted inhibition curve with a large enough effect; inconclusive = small, poorly fitted or top-dose-only effect, or effect the other way; inactive = flat fitted curve, though single readings scatter. This is a selection; strong and weak results do not stand in their true shares. Some compounds were tested as several samples or in several runs, with calls that do not always agree.
# Assay: Nrf2 qHTS screen for inhibitors; also: nearly all actives have a fitted effect of over 60% in size
# Details: A549 ARE-Fluc reporter, luciferase luminescence, 18-24 h; series mostly up to 46 µM; activity change, negative = inhibition: at the top concentration
# Outline: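 In this cell-based qHTS, ARE-driven firefly luciferase in A549 cells reports Nrf2 activity; the luminescent signal after BugLite lysis is the measured value, with a prior CellTiter-Fluor read for cell health.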
# % is scaled to controls: 0 for no effect and ±100 for the full control effect; potency is read from the fitted curve at half-maximal effect.
Structure (SMILES),"activity change, negative = inhibition",Potency
C/C(N)=C(/C#N)C(=O)COC(=O)c1cc(-c2ccc(Br)cc2)nc2ccccc12,inactive: -24.2%,
COc1ccc(OC)c(CCNC(=O)C2CCN(c3ncnc4c3nc3n4CCCCC3)CC2)c1,inactive: -10.9%,
COc1ccccc1S(=O)(=O)NCc1ccc(C(=O)N(C)Cc2ccc(F)cc2)cc1,,active: 23.1 µM
CCOc1ccc(N(CC(=O)Nc2cccc(F)c2)S(=O)(=O)c2c(C)noc2C)cc1,,active: 13 µM
CCc1nc(C)cn1S(=O)(=O)c1cc(Br)ccc1OC,,active: 23.1 µM
CCC1CN(C(=O)NCc2ccc(F)cc2)c2ccccc2O1 (stereo not given),inactive: -1.27%,
OCC[C@@H]1C[C@@H](O)[C@H](O)[C@]2(Cc3ccccc3CO2)O1,inactive: -12.3%,
O=C1NC(=S)S/C1=C\c1cc2ccccc2nc1N1CCCCC1,,active: 20.6 µM
COC(C[C@H]1O[C@H]1[C@@H](O)[C@@H](C)OCc1ccccc1)OC,inactive: -0.75%,
CCOC(=O)c1ccc(NC(=O)c2nc(S(=O)(=O)Cc3ccccc3)ncc2Cl)cc1,inactive: -5.26%,
COc1ccc(Cl)cc1NC(=O)CCCn1c(=O)c2cccn2c2cccnc21,,active: 16.4 µM
COc1ccc(CN2CCN(C(=O)C3CCN(S(=O)(=O)c4cccs4)CC3)CC2)c(OC)c1OC,,active: 14.6 µM
Cc1ccc(C)c(NS(=O)(=O)c2ccc3c(c2)Cc2cc(S(=O)(=O)Nc4cc(C)ccc4C)ccc2-3)c1,,active: 13 µM
CCC(=O)N1c2ccccc2C(N(C(C)=O)c2ccccc2)CC1C (stereo not given),inactive: 7.82%,
COc1ccc(CN2CCN(S(=O)(=O)c3ccc(NC(C)=O)cc3)CC2)c(OC)c1OC,inactive: -4.24%,
COc1ccc(NC(=O)c2ccc3c(c2)CCN3S(=O)(=O)c2ccccc2)cc1,inactive: -13.5%,
CCc1nn(CCCC(=O)NC(C)c2ccccc2)c(=O)c2cc3occc3n12 (stereo not given),inactive: -14.5%,
CC(CNC(=O)CCS(=O)(=O)c1cc2c(cc1Cl)NC(=O)CO2)c1ccccc1 (stereo not given),inactive: 10%,
CC(C)C[C@H](NC(=O)C1CCC(CNC(=O)[C@@H]2CCCN2C(=O)OC(C)(C)C)CC1)C(=O)O (stereo not given in full),inactive: 2.78%,
O=C(Nc1nnc(S(=O)(=O)N2CCOCC2)s1)c1ccc(F)cc1,inactive: 14.2%,
COc1ccc(C(CCN2CCN(c3ccccc3)CC2)c2c(OC)cc(OC)c3c(-c4ccccc4)cc(=O)oc23)cc1 (stereo not given),inactive: -0.355%,
C[C@H]1CC[C@@]2(O[C@@H](CCO)C[C@H](O)[C@H]2O)O1,inactive: -8.53%,
CNC(=O)/C(C#N)=C/c1cc(C)n(-c2ccc(N3CCOCC3)cc2)c1C,inactive: 9.32%,

Structure (SMILES),"activity change, negative = inhibition",Potency
Cc1cccc(NS(=O)(=O)c2ccc3nc(-c4ccccc4)[nH]c3c2)c1C,inactive: -10.4%,
O=C(/C=C/c1ccccc1[N+](=O)[O-])Nc1ccccc1,inactive: 5.41%,
Cc1ccc2c(c1)N(CC(=O)NCCCN1CCCCC1C)C(=O)c1cccnc1O2 (stereo not given),inactive: 18.8%,
COc1ccc(CCNC(=O)c2cccc([N+](=O)[O-])c2)cc1OC,,active: 2.59 µM
C[C@@H](C(=O)Nc1ccc2ccccc2c1)[C@@H]1C[C@@]1(C)[C@@H](NC(=O)c1cccnc1)c1ccccc1,inactive: 4.27%,
CCOC(=O)N1CCc2c(sc3c2c(=O)n(Cc2ccccc2)c(=O)n3Cc2ccc(C)cc2)C1,inactive: -5.45%,
Nc1ncnc2nc[nH]c12,inactive: 17.3%,
COc1ccc(-c2nnc(SCC(=O)N3CCCCC3)o2)cc1,inactive: 16.9%,
CN(C)c1ccc(C(=O)N/N=C/c2cc(Br)cc(Br)c2O)cc1,,active: 13 µM
CC(C)CC(=O)Nc1nnc(S(=O)(=O)N(C)c2ccc(Cl)cc2)s1,inactive: -1.21%,
CC1(C)CC(=O)c2sc(NC(=O)c3cccs3)nc2C1,,active: 14.6 µM
CCN1C(=O)[C@@H]2[C@@H](c3ccc(SC4CCCCC4)c(OC)c3)N3CCCC[C@@]3(C(=O)OC)[C@@H]2C1=O,inactive: 25.5%,
Nc1ccc(C#Cc2ccc3c(=O)c4ccccc4oc3c2)cc1,,active: 10.3 µM
Cn1nccc1C(=O)Nc1cc(Cl)ccc1Cl,,active: 2.91 µM
CCOC(=O)c1cc2c(=O)n3ccccc3nc2n(Cc2ccco2)c1=NC(=O)c1ccccc1OC,inactive: 6.22% [at 9.27 µM],
NC(=O)C1CCN(c2nc(-c3ccc(Br)cc3)cs2)CC1,inactive: -18%,
O=C(N/N=C/C(Br)=C/c1ccccc1)c1n[nH]c2c1CCC2,inactive: -10.2%,
COc1cc(/C=C2/S/C(=N/S(=O)(=O)Cc3ccccc3)NC2=O)c([N+](=O)[O-])cc1OC,inactive: -7.35%,
Nc1c(C(=O)NCc2ccc3c(c2)OCO3)nnn1CC(=O)Nc1ccc(Br)cc1,inactive: -23.8%,
COc1cccc(NC(=O)CN2C(=O)COc3ccc(S(=O)(=O)N4CCCCCC4)cc32)c1,inactive: 1.41%,
Cc1cc(Br)ccc1SCC(=O)OCC(O)=C(C#N)c1nc2ccccc2[nH]1,inactive: -3.64%,
Cc1ccc(-c2cc(-c3ccccc3)c3c(N)c(S(C)(=O)=O)sc3n2)cc1,,active: 13 µM
CC(C)(C)OC(=O)C[C@H]1C/C=C\C[C@H](CC(=O)N(CCO)Cc2ccccc2)C(=O)NC[C@H](c2ccccc2)OC1=O,inactive: 0.288%,

Structure (SMILES),"activity change, negative = inhibition",Potency
C=CC[C@H](CC(=O)N(CCO)Cc1ccccc1)C(=O)N[C@@H](COC(=O)[C@@H](CC=C)CC(=O)OC(C)(C)C)Cc1c[nH]c2ccccc12,,active: 20.6 µM
CCOC(=O)N1C(=O)[C@](c2ccc(Cl)cc2)(C(C)C)N1C(=O)OCC,inactive: 9.13%,
CCCCc1ccc(-c2csc(/C(C#N)=C\c3ccco3)n2)cc1,inactive: -16%,
CCN(CC)S(=O)(=O)c1ccc2c(c1)c(=O)c(C(=O)NCCc1ccccc1)cn2C,inactive: 16.6%,
CCOC(=O)c1c(C)[nH]c(C)c1S(=O)(=O)N(C)CC(=O)NCc1ccc(C)cc1,inactive: -5.96%,
CCn1nnnc1NCc1ccc(OCc2ccc(F)cc2Cl)c(OC)c1,,active: 20.6 µM
O=C(Nc1ccccc1)C1=C[C@H](C2CC2)C[C@H](OCCCCO)O1,inactive: 10.3%,
COc1cccc(NC(=O)Cn2nnc(C(=O)NCc3ccc4c(c3)OCO4)c2N)c1,inactive: -19.2%,
O=C(CCn1ccc2cc(S(=O)(=O)N3CCCC3)ccc21)NCc1ccccc1F,inactive: 2.66%,
CCCN1CNc2c(c(=O)[nH]c(=S)n2CCc2ccc(OC)c(OC)c2)C1,inactive: -14.9%,
COc1ccc(C2/C=C\CN(C(=O)c3ccccc3)C(Cc3ccccc3)C(=O)N2Cc2ccc(F)cc2)cc1 (stereo not given),inactive: -10.5%,
COc1ccc(OC)c(C2=NS(=O)(=O)N(C)C(C(=O)Nc3ccc(F)cc3F)=C2)c1,inactive: -8.79%,
CC(C)N(CCCNC(=O)Cn1ncc2c([nH]c3ccccc32)c1=O)Cc1ccccc1,inactive: 4.43%,
C=CC[C@@H](CC(=O)N(CCO)Cc1ccccc1)C(=O)N[C@H](C)COC(=O)[C@@H](CC=C)Cc1ccc(F)cc1,inactive: -16.8%,
Cc1ccc(C(NC(=O)NC(C)c2ccccc2)C(Cl)(Cl)Cl)cc1F (stereo not given),,active: 16.4 µM
COc1ccccc1C(=O)N/C(=C/c1ccc(Br)cc1)C(=O)NCC(=O)O,inactive: 2.14%,
C=CCCN(C1CCCC1)S(=O)(=O)c1ccccc1Br,inactive: -1.3%,
CC[C@@H]1CCCCc2ccccc2[C@H](C(=O)C[C@H](O)CC(C)=O)OC1=O,inactive: 8.65%,
C[C@@H]1CN([C@@H](C)CO)C(=O)c2cc(NC(=O)Nc3ccc4c(c3)OCO4)ccc2O[C@H]1CN(C)S(=O)(=O)c1cn(C)cn1,inactive: 3.7%,
Cc1ccc(C(=O)Nc2nc(=O)[nH]s2)cc1,inactive: -0.297%,
CN(C)S(=O)(=O)c1cccc(NC(=O)CSc2nc3ccccc3[nH]2)c1,,active: 20.6 µM
CC(=O)c1c(C)[nH]c(C(=O)OCC(=O)NCC(C)C)c1C,,active: 10.3 µM
COc1ccc(/C=C\C(=O)c2c(O)ccc3c(C)cc(=O)oc23)cc1,inactive: -27.1%,

Structure (SMILES),"activity change, negative = inhibition",Potency
COc1cc(Cl)c(NS(=O)(=O)c2cc3[nH]c(=O)c(=O)[nH]c3cc2C)c(OC)c1,inactive: 0.895%,
Cc1ccc(-c2csc(/C=C3/SC(C)C(=O)N3CC(=O)Nc3ccccc3F)n2)cc1 (stereo not given),inactive: -4.76%,
CCOC(=O)c1ccccc1NC(=O)Cc1ccc(OC)c(S(=O)(=O)N2CCOCC2)c1,,active: 18.4 µM
Cc1cc(C)c(OC2(c3ccccc3)OC(=O)c3ccccc32)c(C)c1 (stereo not given),,active: 9.2 µM
COc1ccc(CCNC(=O)c2ccc(CS(=O)(=O)c3ccc(C)cc3)o2)cc1OC,,active: 20.6 µM
C[C@H]1CCC[C@]2(O[C@H](CCO)C[C@H](O)[C@H]2O)O1,inactive: 11.8%,
CCOc1ccc(CNCCNC(=O)c2nonc2N)cc1,inactive: 3.28%,
COc1cc([C@@H]2Nc3c(F)cccc3[C@@H]3C=CC[C@@H]32)cc(Br)c1OC,inactive: 5.17%,
N#C/C(=C/c1ccc(N2CCOCC2)o1)C(=O)NC1CCCCC1,inactive: 1.77%,
Cc1ccc(NC(=O)C2CCCN2S(=O)(=O)c2cccc3cccnc23)c(C)c1 (stereo not given),inactive: -18.1%,
Cc1ccc(-c2nn(CCC(N)=O)c(=O)c3ccccc23)cc1,inactive: -16%,
Cc1ccc(NC(=O)CSc2nc3ccccc3c3nc(CCc4c(C)n[nH]c4C)nn23)cc1F,,active: 13 µM
CC(=O)c1ccc(NC(=O)CCc2c(C)nn(-c3ccc(N4CCOCC4)nn3)c2C)cc1,inactive: 21.8%,
Cc1cc(C)c(S(=O)(=O)NCCc2cc3ccc(C)c(C)c3[nH]c2=O)c(C)c1,inactive: -3.85%,
O=C(/C=C/c1ccc(-c2ccccc2)o1)c1ccccc1,inactive: 10.8%,
Cc1c(NS(=O)(=O)c2cccc(C(=O)O)c2)c(=O)n(-c2ccccc2)n1C,inactive: 11.7%,
CCN1C(=O)[C@@H]2[C@@H](c3ccc(-c4ccc(OC)cc4)cc3)N3CCCC[C@@]3(C(=O)OC)[C@@H]2C1=O,inactive: -16.4%,
O=C1N[C@@H](Cc2ccccc2)C(=O)N2[C@H]1C[C@]1(Br)c3ccccc3N(S(=O)(=O)c3ccc(F)cc3)[C@H]21,inactive: 4.97%,
COC(=O)c1cc(S(=O)(=O)NCC2CCN(Cc3cc(C)ccc3C)CC2)c[nH]1,inactive: -9.62%,
C#CCNC(=O)C1=C[C@@H](C2CCCCC2)[C@H](CCCO)[C@@H](OCC)O1,inactive: -15.2%,
CCCCN(C)C(=O)C(Cc1ccccc1)NS(=O)(=O)c1ccc2c(c1)c(=O)n(C)c(=O)n2C (stereo not given),inactive: 3.6%,
